# Data published in publication PMC4336329 (PLoS ONE, 2015).
# In all, about 310,000 compounds went through this assay and about 2,200 (0.71%) showed an effect of 50% or more. The effect is printed as a negative number. The list shows a part of the results.
# Molecular target: human ether-à-go-go-related gene (hERG) potassium channel (human, UniProt Q12809)
# Test: primary screen, population patch clamp on CHO cells stably expressing hERG
# Chain of human ether-à-go-go-related gene (hERG) potassium channel (Q12809 whole entry, looked up): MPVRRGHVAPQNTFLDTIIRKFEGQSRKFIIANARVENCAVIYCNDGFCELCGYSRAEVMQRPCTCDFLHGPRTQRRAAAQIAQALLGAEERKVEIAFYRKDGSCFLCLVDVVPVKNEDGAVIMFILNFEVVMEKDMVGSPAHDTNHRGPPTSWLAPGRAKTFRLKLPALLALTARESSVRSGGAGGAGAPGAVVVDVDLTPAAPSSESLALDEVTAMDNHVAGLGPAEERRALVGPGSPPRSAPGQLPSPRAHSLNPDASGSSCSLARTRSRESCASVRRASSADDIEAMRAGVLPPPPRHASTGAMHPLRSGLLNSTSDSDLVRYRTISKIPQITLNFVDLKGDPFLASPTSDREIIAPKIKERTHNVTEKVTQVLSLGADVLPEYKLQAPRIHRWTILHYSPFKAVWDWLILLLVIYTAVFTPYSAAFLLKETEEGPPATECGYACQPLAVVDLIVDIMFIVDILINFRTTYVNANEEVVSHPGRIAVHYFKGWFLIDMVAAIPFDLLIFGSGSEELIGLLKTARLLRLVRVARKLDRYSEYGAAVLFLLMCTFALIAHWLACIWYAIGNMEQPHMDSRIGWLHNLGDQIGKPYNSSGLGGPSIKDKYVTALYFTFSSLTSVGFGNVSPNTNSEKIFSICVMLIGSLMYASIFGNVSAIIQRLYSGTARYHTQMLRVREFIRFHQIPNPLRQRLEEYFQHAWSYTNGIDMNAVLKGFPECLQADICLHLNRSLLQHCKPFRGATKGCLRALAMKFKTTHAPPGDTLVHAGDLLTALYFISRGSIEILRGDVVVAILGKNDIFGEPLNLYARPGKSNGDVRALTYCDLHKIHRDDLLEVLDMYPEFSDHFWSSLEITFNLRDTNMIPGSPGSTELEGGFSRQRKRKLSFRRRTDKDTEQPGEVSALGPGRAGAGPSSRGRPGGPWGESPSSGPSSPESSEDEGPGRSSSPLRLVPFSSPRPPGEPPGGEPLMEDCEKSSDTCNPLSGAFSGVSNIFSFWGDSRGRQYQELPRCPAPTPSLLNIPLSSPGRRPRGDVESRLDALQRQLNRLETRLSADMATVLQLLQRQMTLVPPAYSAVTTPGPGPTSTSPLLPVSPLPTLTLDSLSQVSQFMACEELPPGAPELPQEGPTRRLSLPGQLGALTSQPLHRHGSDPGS
row,Structure (SMILES),"hERG current change (%, negative = inhibition) at 1uM"
1,O=C(OCC(=O)N1CCCC1)c1ccc(Cl)c([N+](=O)[O-])c1,0.53%
2,COc1ccc2c(c1OC)C(=O)OC2Nc1ccccc1S(=O)(=O)C(F)F (stereo not drawn),17.3%
3,CCN1CCN(CCOc2ccccc2-c2ccccc2)CC1.O=C(O)C(=O)O,-5.08%
4,CN(Cc1nc2ccc(F)cc2[nH]1)Cc1c(C(=O)N(C)C)nc2ccc(Cl)cn12,-16.4%
5,Cc1ccc(/C=N/NC(=O)c2ccccc2OCc2cccc(Br)c2)o1,3.98%
6,COc1cc(NC(=S)NC(=O)c2ccco2)ccc1NC(=O)C(C)C,7.92%
7,NS(=O)(=O)c1ccc2c(c1)C(=NO)c1cc(S(N)(=O)=O)ccc1-2,10.1%
8,CC(OC(=O)CC1CC2CCC1C2)C(=O)Nc1cccc(S(=O)(=O)N2CCOCC2)c1 (stereo not drawn),13.7%
9,CCC1CCCCN1CCCNC(=O)Cn1c(=O)c2cccn2c2ccccc21 (stereo not drawn),9.41%
10,Cc1ccc(C(=O)OCC(=O)NC2CCCC2)cc1C,9.71%
11,Cn1c(SCc2cccc(Cl)c2)nc(C(F)(F)F)cc1=O,18.4%
12,C/C(=N\NC(=O)c1cc(C)oc1C)c1ccc2c(c1)OCO2,2.82%
13,C/C(CC(=O)Nc1cccc2c1CCCC2)=N\NC(=O)c1ccccc1N,3.55%
14,CCOC(=O)c1c(C)[nH]c(C(=O)OCC(=O)NCc2ccc(F)cc2)c1C,7.37%
15,c1ccc(-n2c(-c3ccco3)nnc2N2CCOCC2)cc1,15.2%
16,COc1ccc(S(=O)(=O)N2CCCCC2)cc1NC(=O)c1cc([N+](=O)[O-])ccc1N1CCOCC1,1.19%
17,CCc1csc(CCNC(=O)C2CCC(=O)N(CCc3cccc(F)c3)C2)n1 (stereo not drawn),5.04%
18,Cc1ccc(NC2=CC(=O)CC(c3ccc(Cl)cc3)C2)cc1 (stereo not drawn),7.86%
19,Cc1cccc(NC(=O)Cn2c(=O)n3nc(CCn4nc(C)cc4C)nc3c3ccccc32)c1,-18.7%
20,O=C(Cc1cccs1)N/N=C/C=C/c1ccccc1[N+](=O)[O-],9.51%
21,Cc1ccc(S(=O)(=O)N2CCOCC2)cc1NC(=O)COC(=O)C1=COCCO1,19.7%
22,CCC1(c2ccccc2)NC(=O)N(CC(=O)NCc2ccc(C)cc2)C1=O (stereo not drawn),14.4%

row,Structure (SMILES),"hERG current change (%, negative = inhibition) at 1uM"
1,COCCNc1ncnc2c1nc1n2CCCC1,10.4%
2,CN(Cc1ccco1)C(=O)Cn1cc(S(=O)(=O)N2CCCC2)c(S(=O)(=O)N2CCCC2)c1,10.8%
3,O=c1c2c(nc3cc(-c4ccc(Cl)cc4)[nH]n13)CCS2,-0.631%
4,CCCCN(CC)CCCNC(=O)c1ccc(CSc2nc3ccncc3[nH]2)cc1,9.93%
5,COc1ccc(/C=N/N2CCN(c3ccncc3S(=O)(=O)N3CCCCC3)CC2)cc1,9.52%
6,Cn1cc(SCC(=O)O)c2ccccc21,10.6%
7,COc1cccc(CNC(=O)Cn2c(=O)c3cccn3c3ccccc32)c1,13.6%
8,CCCCN(CC)C(=O)/C=C/c1cccc([N+](=O)[O-])c1,-29.6%
9,COc1ccc(NC(=O)COc2ccc(/C=N/O)cc2OC)cc1,7.08%
10,CC(=O)NC(CC(=O)Nc1ccc(S(=O)(=O)NC2=NCCCCC2)cc1)c1ccccc1 (stereo not drawn),8.2%
11,COc1ccc(NC(=O)CSc2nc3sc(C)c(C)c3c(=O)n2Cc2ccco2)cc1,13.3%
12,Cc1ccc(C)c(S(=O)(=O)NC(Cc2c[nH]c3ccccc23)C(=O)O)c1 (stereo not drawn),17.2%
13,O=c1cnnc(Nc2ccc(Nc3ccccc3)cc2)[nH]1,18.1%
14,CC(C)Cn1c(=O)c2c(nc3n2CCS3)n(C)c1=O,6.94%
15,O=C(NC(=S)Nc1ccccc1Cl)c1cncc(Br)c1,12.1%
16,Cc1nc(C(=O)NCCCO)cc2c1[nH]c1ccccc12,17.7%
17,CCOC(=O)c1ccccc1NC(=O)Cn1cnc2c(oc3ccccc32)c1=O,18.3%
18,CCOC(=O)c1ccc(N(CC(=O)NC2CCCC2)C(=O)CNC(=O)c2ccco2)cc1,3.25%
19,CC(C(=O)N1c2ccccc2CC1C)N1CCN(S(=O)(=O)c2ccccc2F)CC1 (stereo not drawn),0.423%
20,O=C1COc2ccc(C(=O)COC(=O)Cc3ccc(Cl)cc3)cc2N1,6.51%
21,O=C(NCc1ccccc1Cl)C1CCC(=O)N(C2CCCC2)C1 (stereo not drawn),8.91%
22,CCNC(=O)CP(=O)(c1ccccc1)c1ccccc1,7.35%

row,Structure (SMILES),"hERG current change (%, negative = inhibition) at 1uM"
1,O=C(CCn1c(=O)c2ccccc2n(Cc2cccnc2)c1=O)NCc1ccc2c(c1)OCO2,9.51%
2,COCCCNC(=O)CN1CCN(Cc2ccc(Cl)cc2)C1=O,5.07%
3,O=C(CSc1nnc(NC(=O)C2CCCCC2)s1)NCc1ccco1,2.37%
4,Cc1ccccc1NC(=O)C1CCCN(C(=O)Nc2ccc(F)cc2)C1 (stereo not drawn),5.81%
5,COc1ccc(NC2=Nc3cccc4cccc2c34)cc1,1.92%
6,ON1C2CCCCC2N(O)C1c1c(F)c(F)c(F)c(F)c1F (stereo not drawn),17.7%
7,CCn1c(Cc2ccccc2)nnc1SCC(=O)Nc1cc(C)on1,15.8%
8,O=C(CCNC(=O)c1ccc([N+](=O)[O-])cc1)Nc1ccccc1N1CCOCC1,-4.23%
9,Cc1oc(-c2cccc(C(F)(F)F)c2)nc1CN1CCOCC1,9.03%
10,COc1cc(NS(=O)(=O)c2ccc(Br)s2)cc(OC)c1,5.29%
11,Cc1ccc(C)c(OC(C)C(=O)Nc2nccs2)c1 (stereo not drawn),11.5%
12,CN(C)C(=O)c1nnsc1Sc1ccc(Cl)cc1,12.9%
13,Cc1cc(NC(=O)CCCSc2nc(-c3ccco3)cc(C(F)(F)F)n2)no1,13.7%
14,O=C(Nn1c(-c2ccncc2)nc2ccccc2c1=O)c1ccc([N+](=O)[O-])cc1Cl,7.96%
15,Cc1nn(C)cc1S(=O)(=O)N1CCN(c2ccccc2)CC1,0.0132%
16,CC1=C(C(=O)OCc2ccccc2)C(c2ccc(N3CCOCC3)cc2)NC(=O)N1 (stereo not drawn),0.721%
17,Cc1ccc2oc(=O)c3cnn(CC(=O)N4CCCCCC4)c3c2c1,-1.04%
18,COC(=O)C1=C(c2ccc(Cl)c(C(F)(F)F)c2)C[C@@H]2CC[C@H]1N2C(=O)NCC1CC1,13.9%
19,O=c1cc(-c2ccccc2Cl)oc2c(NS(=O)(=O)c3cc(Cl)cc(Cl)c3O)ccc(O)c12,18.4%
20,Cc1ccccc1OCC(=O)NCC(=O)N/N=C/c1ccc(Br)o1,13.1%
21,O=C(CSc1ncnc2ccccc12)Nc1cc(S(=O)(=O)N2CCCCC2)ccc1Cl,4.42%
22,COc1ccc(-c2cc3c(=O)n(CC(=O)N4CCCC4)ncn3n2)cc1,3.93%

row,Structure (SMILES),"hERG current change (%, negative = inhibition) at 1uM"
1,Cc1cccc(N2CCN(C(=O)C3CCN(S(=O)(=O)c4c(C)noc4C)CC3)CC2C)c1 (stereo not drawn),13.1%
2,Oc1ccccc1C1NN=C(c2ccccc2)S1 (stereo not drawn),8.06%
3,O=C(CCl)Nc1nc(-c2ccco2)c(-c2ccco2)s1,21.1%
4,COC(=O)c1ccc(NC(=O)c2cc[n+]([O-])cc2)cc1,10.9%
5,Cc1cc(C(=O)OCC(=O)NCc2ccc3c(c2)OCO3)c2ccccc2n1,5.2%
6,CCOC(=O)c1ccc(N2C(=O)C3ON(c4ccccc4)C(c4ccco4)C3C2=O)cc1 (stereo not drawn),16.4%
7,CC(=O)NCCC(=O)Nc1nc(C)c(Cc2ccc3c(c2)OCO3)s1,1.67%
8,COc1ccc(N(C(=O)c2cccnc2)S(=O)(=O)c2ccc3c(c2)n(C)c(=O)n3C)cc1,2.78%
9,CC1(C)CC(=O)CC(=Nc2ccc(C(=O)O)cc2)C1,12.1%
10,COc1ccccc1CNC(=O)CCNC(=O)C1CCN(S(=O)(=O)c2ccccc2)CC1,2.41%
11,COc1ccc(Cl)cc1NC(=O)c1ocnc1C,0.857%
12,O=C(NCC(=O)N(c1cccc(F)c1)C(C(=O)NC1CCCC1)c1ccncc1)c1cccs1 (stereo not drawn),13.4%
13,COc1ccc(-c2nn(CCC#N)cc2C(=O)Nc2ccc(C(C)=O)cc2)cc1[N+](=O)[O-],11.9%
14,O=Cc1ccccc1Oc1nc(N2CCOCC2)nc(N2CCOCC2)n1,9.76%
15,CN=C(Nc1ccc(C)c(C)c1)SC1CC(=O)N(c2ccc(OC)cc2)C1=O (stereo not drawn),11.2%
16,COc1ccc(Cl)cc1NC(=O)C(C)NC(c1ccccc1)c1ccccc1 (stereo not drawn),2.3%
17,N#Cc1ncc(C(F)(F)F)cc1Sc1ccccc1N,11.7%
18,Cc1ccc(C)c(NC(=O)CCc2ccc(S(=O)(=O)NC3CCCCC3)cc2)c1,8.33%
19,CC(C)(C)c1ccc(/C=C/C(=O)Nc2cccnc2)cc1,8.63%
20,Cc1oc2ccc(O)cc2c1C(=O)c1ccccc1,9.82%
21,COc1ccc(C2=NOC(C(=O)NCc3ccc(F)cc3)C2)cc1OC (stereo not drawn),3.29%
